According to PMC12820563, “FoxP3 forms a head-to-head dimer in vivo and stabilizes its multimerization on adjacent microsatellites”:
This is one part of the list.

Target: T1, MBP-FoxP1dN (Mus musculus, UniProt P58462 326-579)
T1 sequence: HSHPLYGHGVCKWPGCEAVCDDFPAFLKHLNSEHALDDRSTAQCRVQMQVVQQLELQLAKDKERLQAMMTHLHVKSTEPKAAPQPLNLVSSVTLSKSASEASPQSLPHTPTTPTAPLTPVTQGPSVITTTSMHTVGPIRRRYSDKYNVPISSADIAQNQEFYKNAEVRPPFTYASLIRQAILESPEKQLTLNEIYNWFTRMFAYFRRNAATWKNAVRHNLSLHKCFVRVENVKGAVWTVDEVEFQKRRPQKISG
Test: PD-seq (MBP pull-down with sequencing); 20 mM Tris-HCl pH 7.5, 100 mM NaCl, 1.5 mM MgCl2, 0.4 uM protein, 0.1 uM dsDNA library, 30 min, room temperature, amylose pull-down; high values mean tight binding
Conditions: protein: recombinant; tags: His6-MBP; chain copies: 2; dsDNA, one strand shown
Procedure, shortened: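 Binding is reads-per-million enrichment of pull-down over input, with replicates pooled. It comes from 30 min room-temperature incubation in Tris pH 7.5 buffer with NaCl and MgCl2 of 0.4 µM His6-MBP-tagged, N-terminally truncated mouse FoxP3 or FoxP1 fragment from E. coli with 0.1 µM Klenow-filled degenerate double-stranded DNA library, followed by amylose resin capture, three washes and Illumina sequencing of the released DNA.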

Sequence | binding signal
GATGATTGTTCTCCCAGCTGATGAATTCTCCTGCTCGAGTAAACAAATTTTCCTAATCTTTCTGTTCAAGCGCCATCTAC | 0.838 RPM ratio (pull-down/input)
GATGATTGTTCTCCCAGCTGATGAATTTTACAAATCGAGTAAACAAATTTTCCTAATCTTTCTGTTCAAGCGCCATCTAC | 1.1 RPM ratio (pull-down/input)
GATGATTGTTCTCCCAGCTGATGAATTATACGCTTCGAGTAAACAAATTTTCCTAATCTTTCTGTTCAAGCGCCATCTAC | 1.09 RPM ratio (pull-down/input)
GATGATTGTTCTCCCAGCTGATGAATTGAGTACCTCGAGTAAACAAATTTTCCTAATCTTTCTGTTCAAGCGCCATCTAC | 0.844 RPM ratio (pull-down/input)
GATGATTGTTCTCCCAGCTGATGAATTATCTTTATCGAGTAAACAAATTTTCCTAATCTTTCTGTTCAAGCGCCATCTAC | 1.09 RPM ratio (pull-down/input)
GATGATTGTTCTCCCAGCTGATGAATTTCTTCCGTCGAGTAAACAAATTTTCCTAATCTTTCTGTTCAAGCGCCATCTAC | 0.835 RPM ratio (pull-down/input)
GATGATTGTTCTCCCAGCTGATGAATTAAGGCTATCGAGTAAACAAATTTTCCTAATCTTTCTGTTCAAGCGCCATCTAC | 0.903 RPM ratio (pull-down/input)
GATGATTGTTCTCCCAGCTGATGAATTACAACATTCGAGTAAACAAATTTTCCTAATCTTTCTGTTCAAGCGCCATCTAC | 1.71 RPM ratio (pull-down/input)
GATGATTGTTCTCCCAGCTGATGAATTTGCCTTGTCGAGTAAACAAATTTTCCTAATCTTTCTGTTCAAGCGCCATCTAC | 0.889 RPM ratio (pull-down/input)
GATGATTGTTCTCCCAGCTGATGAATTTGTAGGTTCGAGTAAACAAATTTTCCTAATCTTTCTGTTCAAGCGCCATCTAC | 1.02 RPM ratio (pull-down/input)
GATGATTGTTCTCCCAGCTGATGAATTGATTGGATCGAGTAAACAAATTTTCCTAATCTTTCTGTTCAAGCGCCATCTAC | 1.08 RPM ratio (pull-down/input)
GATGATTGTTCTCCCAGCTGATGAATTAACCTAATCGAGTAAACAAATTTTCCTAATCTTTCTGTTCAAGCGCCATCTAC | 1.05 RPM ratio (pull-down/input)
GATGATTGTTCTCCCAGCTGATGAATTACATACGTCGAGTAAACAAATTTTCCTAATCTTTCTGTTCAAGCGCCATCTAC | 1.34 RPM ratio (pull-down/input)
GATGATTGTTCTCCCAGCTGATGAATTAACTTGATCGAGTAAACAAATTTTCCTAATCTTTCTGTTCAAGCGCCATCTAC | 0.84 RPM ratio (pull-down/input)
GATGATTGTTCTCCCAGCTGATGAATTAGTTTGTTCGAGTAAACAAATTTTCCTAATCTTTCTGTTCAAGCGCCATCTAC | 1.26 RPM ratio (pull-down/input)
GATGATTGTTCTCCCAGCTGATGAATTATGATGGTCGAGTAAACAAATTTTCCTAATCTTTCTGTTCAAGCGCCATCTAC | 1.1 RPM ratio (pull-down/input)
GATGATTGTTCTCCCAGCTGATGAATTAGTATTTTCGAGTAAACAAATTTTCCTAATCTTTCTGTTCAAGCGCCATCTAC | 2.28 RPM ratio (pull-down/input)
GATGATTGTTCTCCCAGCTGATGAATTGTAGCCGTCGAGTAAACAAATTTTCCTAATCTTTCTGTTCAAGCGCCATCTAC | 0.897 RPM ratio (pull-down/input)
GATGATTGTTCTCCCAGCTGATGAATTAGCCCTCTCGAGTAAACAAATTTTCCTAATCTTTCTGTTCAAGCGCCATCTAC | 0.798 RPM ratio (pull-down/input)
GATGATTGTTCTCCCAGCTGATGAATTCGGGCTCTCGAGTAAACAAATTTTCCTAATCTTTCTGTTCAAGCGCCATCTAC | 0.695 RPM ratio (pull-down/input)
GATGATTGTTCTCCCAGCTGATGAATTGGGTGGGTCGAGTAAACAAATTTTCCTAATCTTTCTGTTCAAGCGCCATCTAC | 0.83 RPM ratio (pull-down/input)

Sequence | binding signal
GATGATTGTTCTCCCAGCTGATGAATTGACGGCATCGAGTAAACAAATTTTCCTAATCTTTCTGTTCAAGCGCCATCTAC | 1.16 RPM ratio (pull-down/input)
GATGATTGTTCTCCCAGCTGATGAATTCGAGTCGTCGAGTAAACAAATTTTCCTAATCTTTCTGTTCAAGCGCCATCTAC | 0.767 RPM ratio (pull-down/input)
GATGATTGTTCTCCCAGCTGATGAATTTGCGTCCTCGAGTAAACAAATTTTCCTAATCTTTCTGTTCAAGCGCCATCTAC | 1.07 RPM ratio (pull-down/input)
GATGATTGTTCTCCCAGCTGATGAATTAATACGCTCGAGTAAACAAATTTTCCTAATCTTTCTGTTCAAGCGCCATCTAC | 1.05 RPM ratio (pull-down/input)
GATGATTGTTCTCCCAGCTGATGAATTTAACTCTTCGAGTAAACAAATTTTCCTAATCTTTCTGTTCAAGCGCCATCTAC | 0.805 RPM ratio (pull-down/input)
GATGATTGTTCTCCCAGCTGATGAATTGGGCATTTCGAGTAAACAAATTTTCCTAATCTTTCTGTTCAAGCGCCATCTAC | 1 RPM ratio (pull-down/input)
GATGATTGTTCTCCCAGCTGATGAATTTATGGCCTCGAGTAAACAAATTTTCCTAATCTTTCTGTTCAAGCGCCATCTAC | 0.966 RPM ratio (pull-down/input)
GATGATTGTTCTCCCAGCTGATGAATTCTCCGACTCGAGTAAACAAATTTTCCTAATCTTTCTGTTCAAGCGCCATCTAC | 0.775 RPM ratio (pull-down/input)
GATGATTGTTCTCCCAGCTGATGAATTCTGACCGTCGAGTAAACAAATTTTCCTAATCTTTCTGTTCAAGCGCCATCTAC | 0.835 RPM ratio (pull-down/input)
GATGATTGTTCTCCCAGCTGATGAATTCACGGGCTCGAGTAAACAAATTTTCCTAATCTTTCTGTTCAAGCGCCATCTAC | 0.759 RPM ratio (pull-down/input)
GATGATTGTTCTCCCAGCTGATGAATTCAATACGTCGAGTAAACAAATTTTCCTAATCTTTCTGTTCAAGCGCCATCTAC | 1.03 RPM ratio (pull-down/input)
GATGATTGTTCTCCCAGCTGATGAATTGATCCGTTCGAGTAAACAAATTTTCCTAATCTTTCTGTTCAAGCGCCATCTAC | 0.928 RPM ratio (pull-down/input)
GATGATTGTTCTCCCAGCTGATGAATTTCCGTTGTCGAGTAAACAAATTTTCCTAATCTTTCTGTTCAAGCGCCATCTAC | 1.06 RPM ratio (pull-down/input)
GATGATTGTTCTCCCAGCTGATGAATTGACCCTTTCGAGTAAACAAATTTTCCTAATCTTTCTGTTCAAGCGCCATCTAC | 0.95 RPM ratio (pull-down/input)
GATGATTGTTCTCCCAGCTGATGAATTAATCCGTTCGAGTAAACAAATTTTCCTAATCTTTCTGTTCAAGCGCCATCTAC | 0.923 RPM ratio (pull-down/input)
GATGATTGTTCTCCCAGCTGATGAATTCAAATGATCGAGTAAACAAATTTTCCTAATCTTTCTGTTCAAGCGCCATCTAC | 0.933 RPM ratio (pull-down/input)
GATGATTGTTCTCCCAGCTGATGAATTGGCACCCTCGAGTAAACAAATTTTCCTAATCTTTCTGTTCAAGCGCCATCTAC | 0.828 RPM ratio (pull-down/input)
GATGATTGTTCTCCCAGCTGATGAATTACTGGTGTCGAGTAAACAAATTTTCCTAATCTTTCTGTTCAAGCGCCATCTAC | 1.01 RPM ratio (pull-down/input)
GATGATTGTTCTCCCAGCTGATGAATTCAAGTCCTCGAGTAAACAAATTTTCCTAATCTTTCTGTTCAAGCGCCATCTAC | 0.759 RPM ratio (pull-down/input)
GATGATTGTTCTCCCAGCTGATGAATTGGTCGCATCGAGTAAACAAATTTTCCTAATCTTTCTGTTCAAGCGCCATCTAC | 1.16 RPM ratio (pull-down/input)
GATGATTGTTCTCCCAGCTGATGAATTTTATTATTCGAGTAAACAAATTTTCCTAATCTTTCTGTTCAAGCGCCATCTAC | 1.7 RPM ratio (pull-down/input)

Sequence | binding signal
GATGATTGTTCTCCCAGCTGATGAATTTCCATACTCGAGTAAACAAATTTTCCTAATCTTTCTGTTCAAGCGCCATCTAC | 0.947 RPM ratio (pull-down/input)
GATGATTGTTCTCCCAGCTGATGAATTACTTGCATCGAGTAAACAAATTTTCCTAATCTTTCTGTTCAAGCGCCATCTAC | 1.48 RPM ratio (pull-down/input)
GATGATTGTTCTCCCAGCTGATGAATTCACTGCGTCGAGTAAACAAATTTTCCTAATCTTTCTGTTCAAGCGCCATCTAC | 0.983 RPM ratio (pull-down/input)
GATGATTGTTCTCCCAGCTGATGAATTGATGACGTCGAGTAAACAAATTTTCCTAATCTTTCTGTTCAAGCGCCATCTAC | 1.06 RPM ratio (pull-down/input)
GATGATTGTTCTCCCAGCTGATGAATTACCTTAATCGAGTAAACAAATTTTCCTAATCTTTCTGTTCAAGCGCCATCTAC | 1.11 RPM ratio (pull-down/input)
GATGATTGTTCTCCCAGCTGATGAATTGGACATCTCGAGTAAACAAATTTTCCTAATCTTTCTGTTCAAGCGCCATCTAC | 0.801 RPM ratio (pull-down/input)
GATGATTGTTCTCCCAGCTGATGAATTAGGGATCTCGAGTAAACAAATTTTCCTAATCTTTCTGTTCAAGCGCCATCTAC | 0.826 RPM ratio (pull-down/input)
GATGATTGTTCTCCCAGCTGATGAATTGAATGGGTCGAGTAAACAAATTTTCCTAATCTTTCTGTTCAAGCGCCATCTAC | 0.775 RPM ratio (pull-down/input)
GATGATTGTTCTCCCAGCTGATGAATTTCGGACATCGAGTAAACAAATTTTCCTAATCTTTCTGTTCAAGCGCCATCTAC | 0.958 RPM ratio (pull-down/input)
GATGATTGTTCTCCCAGCTGATGAATTACGCCGGTCGAGTAAACAAATTTTCCTAATCTTTCTGTTCAAGCGCCATCTAC | 0.902 RPM ratio (pull-down/input)
GATGATTGTTCTCCCAGCTGATGAATTGCATAATTCGAGTAAACAAATTTTCCTAATCTTTCTGTTCAAGCGCCATCTAC | 1.36 RPM ratio (pull-down/input)
GATGATTGTTCTCCCAGCTGATGAATTTGCTCGGTCGAGTAAACAAATTTTCCTAATCTTTCTGTTCAAGCGCCATCTAC | 0.87 RPM ratio (pull-down/input)
GATGATTGTTCTCCCAGCTGATGAATTCTGCAATTCGAGTAAACAAATTTTCCTAATCTTTCTGTTCAAGCGCCATCTAC | 0.958 RPM ratio (pull-down/input)
GATGATTGTTCTCCCAGCTGATGAATTCCCAATATCGAGTAAACAAATTTTCCTAATCTTTCTGTTCAAGCGCCATCTAC | 1.11 RPM ratio (pull-down/input)
GATGATTGTTCTCCCAGCTGATGAATTCTCATAGTCGAGTAAACAAATTTTCCTAATCTTTCTGTTCAAGCGCCATCTAC | 0.836 RPM ratio (pull-down/input)
GATGATTGTTCTCCCAGCTGATGAATTGCCCGCGTCGAGTAAACAAATTTTCCTAATCTTTCTGTTCAAGCGCCATCTAC | 0.975 RPM ratio (pull-down/input)
GATGATTGTTCTCCCAGCTGATGAATTAATCGATTCGAGTAAACAAATTTTCCTAATCTTTCTGTTCAAGCGCCATCTAC | 0.998 RPM ratio (pull-down/input)
GATGATTGTTCTCCCAGCTGATGAATTGCTCACTTCGAGTAAACAAATTTTCCTAATCTTTCTGTTCAAGCGCCATCTAC | 1.02 RPM ratio (pull-down/input)
GATGATTGTTCTCCCAGCTGATGAATTCTCGCCGTCGAGTAAACAAATTTTCCTAATCTTTCTGTTCAAGCGCCATCTAC | 0.856 RPM ratio (pull-down/input)
GATGATTGTTCTCCCAGCTGATGAATTTGCTCGTTCGAGTAAACAAATTTTCCTAATCTTTCTGTTCAAGCGCCATCTAC | 0.936 RPM ratio (pull-down/input)
GATGATTGTTCTCCCAGCTGATGAATTGTATGGTTCGAGTAAACAAATTTTCCTAATCTTTCTGTTCAAGCGCCATCTAC | 1.1 RPM ratio (pull-down/input)
